Measured values taken from PubChem BioAssay (NCI).
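Following 48 hours of exposure in 96-well plates, responses at five concentrations were used to interpolate endpoints linearly. GI50 is the concentration that inhibits growth by half. At the TGI there is no net growth.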

These compounds were tested on NCI-H322M lung (assay: inhibition of tumour cell growth, NCI panel, 48 h).

Compound	TGI [µM]	GI50 [µM]
COc1cc2ccc1NC(=O)N1CCN(CC1)C(=O)Nc1ccc(cc1OC)-c1ccc(c(OC)c1)NC(=O)N1CCN(CC1)C(=O)Nc1ccc-2cc1OC	> 100	
CCOC(=O)c1ccc(NC(=O)O/N=C(/Cl)CC)cc1	30.5	
COc1cc2c(oc(=O)c3cc(C)cc(OC)c32)c2c(C3OC(C)C(O)C(C)(O)C3O)ccc(O)c12 (stereo unspecified)	2.42	
CC(=O)OC1Oc2ccccc2-c2oc(=O)c(-c3ccc(F)cc3)cc21 (stereo unspecified)	> 100	42.2
COc1ccc(/C=c2/sc3n(c2=O)NC2(CCCCC2)NN=3)cc1	> 100	
Cc1ccc(NC2=N[C@]34CC(=O)CC[C@]3(C)[C@H]3CC[C@]5(C)C(=O)CC[C@H]5[C@@H]3C[C@@H]4S2)c(C)c1	> 100	4.28
CN(/N=C(\C(=O)O)c1ccccc1)C1=NCCN1	> 100	
O=S(/C=C/C=C/S(=O)(=O)c1ccccc1)c1ccccc1 (stereo unspecified)	> 10	
C=CCOC(=O)C[C@H](NC(=O)[C@H](Cc1ccc(O)cc1)NCC(F)(F)F)C(=O)OCC=C	> 100	
CSc1ncnc2c1cnn2Cc1cn(CCCCO)nn1	> 100	
CCOP1(=O)C=CC(Cl)=C(C)C1 (stereo unspecified)	59.7	
Oc1ccc(-c2nc(=S)[nH][nH]2)cc1	> 100	
CC(=O)c1cc(I)c(O)c2ncccc12	> 10	
N#Cc1nc(C(O)c2ccccc2)oc1N (stereo unspecified)	> 100	
CC12OC3(C)OC(=O)C(c4ccccc4)(O1)C3(C)O2 (stereo unspecified)	> 100	
C[C@]12CCC(=O)CC1CC[C@@H]1C2CC[C@@]2(C)C1CC[C@@H]2OC(=O)CC[Se][Se]CCC(=O)O[C@H]1CCC2[C@@H]3CCC4CC(=O)CC[C@]4(C)C3CC[C@@]21C (stereo partly specified)	6.29	2.63
O=C1c2cccc(O)c2C(=O)c2cccc(O)c21	> 100	
CC(=O)N1CCC(Nc2cc(C(=O)NC[C@H](O)CN3CCc4ccccc4C3)ncn2)CC1	> 100	> 100
CCc1cccc(CC)c1NC(=O)C(C#N)C1=C(Cl)C(=O)c2ccccc2C1=O (stereo unspecified)	40.3	
O=C(Nc1ccc([As]=[As]c2ccc(NC(=O)c3ccccc3)cc2)cc1)c1ccccc1 (stereo unspecified)	3.12	1.69
O=C1CCC2(c3ccc(F)cc3)Nc3ncccc3N12 (stereo unspecified)	> 100	
O=C(O)CCCNS(=O)(=O)c1ccccc1	> 100	

Compound	TGI [µM]	GI50 [µM]
NCCc1ccc2oc3cc(=O)c4ccccc4c-3nc2c1	10.1	
COc1cccc(N=Cc2cc(OC)c(OC)c(OC)c2)c1	> 100	
Cc1cc2c3ccccc3nc2c2cc[nH]c(C)c12	> 100	
c1ccc2c(CC3NCCN3)cccc2c1	> 100	
C/C(=N\NC(=O)c1ccncc1)c1ccccc1Cl	> 100	
OCc1ccc(N(Cc2ccc(F)cc2)CC2CC2)cc1Cl	22.1	9.7
CCCNC(=S)N=Nc1c(O)[nH]c2ccccc12	> 100	
CC1OC(OC2C(O)CC(OC3C(O)CC(OC4CCC5(C)C(CCC6C5CCC5(C)C(C7=CC(=O)OC7)CCC65O)C4)OC3C)OC2C)CC(O)C1O (stereo unspecified)	0.469	0.075
Cc1cc(Oc2ccccc2)ccc1Nc1ncnc2ccc(-c3cnc(Cl)c(NS(C)(=O)=O)c3)cc12	4.03	1.2
COC(=O)C1CCC2(C)[C@H](CCC3O[C@]32C)[C@@]1(C)CC(=O)c1ccoc1 (stereo partly specified)	> 100	
c1ccc2c(c1)CCN2CCN1CCc2ccccc21	> 10	
C[Si](C)(c1ccccc1)C1CC(=O)CC(=O)C1	> 100	
CCCc1[nH]nc(C(N)=O)c1N=NN(C)C	> 100	
O=C(CCc1ccc(O)c(O)c1)OCCc1ccccc1	93	
C=CCc1cccc2cc(C(N)=O)c(=N)oc12	> 100	
COc1ccc(C(O)c2cc(OC)c(OC)c(OC)c2)cc1 (stereo unspecified)	> 100	
NCCN.O=C([O-])C(=O)[O-].O=C([O-])C(=O)[O-].[Co+3].[K+]	> 100	> 100
C=C1C(NC)CCC23CC24CCC2(C)C(C(C)=O)C(O)CC2(C)C4CCC13 (stereo unspecified)	> 100	
CC(=O)N1C(Nc2cnc3ccccc3c2)CCN1c1ccccc1 (stereo unspecified)	> 10	
C=C1C(=O)O[C@H]2[C@H]1CC/C(COC(=O)CCCC(=O)OC/C1=C/CC[C@@]3(C)O[C@H]3[C@H]3OC(=O)C(=C)[C@@H]3CC1)=C\CC[C@@]1(C)O[C@@H]21	40.9	9.92
O=CC1=C(C(=O)OC(c2ccccc2)c2ccccc2)N2C(=O)[C@@H](NC(=O)Cc3cccs3)[C@H]2SC1	> 100	
Cc1cc(C(C)C)cc(O)c(=O)c1	> 100	

Compound	TGI [µM]	GI50 [µM]
c1ccc([Si](OCCN2CC2)(c2ccccc2)c2ccccc2)cc1	29.5	
CC(=O)OC1CC2C(C)(C)C(=O)C=C[C@]2(C)C2CC[C@]3(C)C(OCC(=O)[C@H]3c3ccoc3)[C@]12C (stereo partly specified)	8.71	2.27
O=[N+]([O-])c1ccc(-c2noc(-c3ccccc3)c2C2=NCCN2)cc1	> 100	
Cc1nn(CCO)c(C)c1N=[N+]([O-])c1c(C)nn(CCO)c1C	34.3	17.5
COc1ccc2c(c1)[n+]([O-])c(C#N)c(NC(=O)c1cccs1)[n+]2[O-]	> 100	> 100
CN(C)CCNc1ccc(NCC[N+](C)(C)Cc2ccc([N+](=O)[O-])cc2)c2c1C(=O)c1ccccc1C2=O	> 25	
Cc1cc(C)n(C(=O)CSc2nc3ccc(I)cc3c(=O)n2Cc2ccccc2)n1	> 100	
COc1cc2c[n+](C)c3c4cc(OC)c(OC)cc4c(OCc4ccccc4)cc3c2cc1OC	> 41	
C/C(=N/OC(=O)c1cccc2c(=O)c3ccccc3[nH]c12)[C@H]1CC[C@H]2[C@@H]3CCC4=C/C(=N/OC(=O)c5cccc6c(=O)c7ccccc7[nH]c56)CC[C@]4(C)[C@H]3CC[C@]12C	78.5	
O=Cc1cn(Cc2ccc(Cl)cc2)c2ccccc12	> 100	4.87
COC(=O)c1cc(C)ccc1/C=C1\Cc2cccc(C)c2C1=O	> 100	
O=S(=O)(Nc1ccc(Cl)cc1)c1ccc(-c2cnc(C3CC3)o2)cc1	18.2	3.42
O=C1C(Cl)N(c2ccc(Cl)cc2Cl)C1c1c[nH]c2ccccc12 (stereo unspecified)	> 100	
O=C(Nc1ccccc1)c1cc(S(=O)(=O)n2cc[nH]c2=O)c(S)cc1Cl	> 100	
CC(=O)NC(CC(C)C)C(=O)NC(CC(C)C)C(=O)NC(C=O)CCCN=C(N)N (stereo unspecified)	> 100	
C/C=C1\C(=O)O[C@H]2C/C(C)=C/CC/C(C)=C/CC[C@@]3(C)O[C@@H]3C[C@@H]12	> 100	
Cc1cc(N(CCNc2ccnc3cc(Cl)ccc23)Cc2cccs2)nc(Cl)n1	4.16	1.75
CC(=N\O)/C(C)=N/O.CC(=N\O)/C(C)=N/O.CC(=N\O)/C(C)=N/O.CC(=N\O)/C(C)=N/O.[CH3-].[CH3-].[Co].[Co]	> 100	23.6
C=C1C(=O)OC2/C=C(/CO)C3(O)CC(O)C(C)(CC(OC(=O)/C(C)=C/C)C12)O3 (stereo unspecified)	> 100	
NS(=O)(=O)c1nnc(NS(=O)(=O)c2ccc(F)cc2)s1	> 100	
CC(C)=CC(=O)OC1C(CO)OC(Oc2cc(O)c3c(=O)cc(-c4ccc(O)c(O)c4)oc3c2)C(OC2OC(C)C(O)C(O)C2O)C1O (stereo unspecified)	> 100	> 100
CC(=O)C1C(=O)C(=O)N(c2ccc(Cl)c(Cl)c2)C1=O (stereo unspecified)	> 100	

Compound	TGI [µM]	GI50 [µM]
CN(C)CCCNCc1ccc(-c2ccc(F)c(Cl)c2)o1	29.7	14.2
O=[N+]([O-])c1ccc2c(c1)C(=NO)c1cc([N+](=O)[O-])ccc1-2	> 100	20.4
CC1=NN(C(=O)CC(=O)N(C(=O)c2ccccc2)c2ccc(Cl)cc2)C(=O)C1N=Nc1ccc([N+](=O)[O-])cc1 (stereo unspecified)	> 10	
O=c1[nH]c2[nH]c(-c3ccc(Br)cc3)cc2c2ccccc12	> 100	
O=C(Nc1cccc(Cl)c1)Nc1nccs1	82.4	24
CCCN(CCC)c1ccc(CO)c(Cl)c1	> 100	55.9
CN(C(=O)CCC(=O)O)c1ccccc1C(=O)O	> 100	
COc1ccc2c(ccc3c(C(=O)NCCN(C)CCNC(=O)c4cn(C)c5c4ccc4cc(OC)ccc45)cn(C)c32)c1	7.26	
COc1ccc(Nc2nc3cc(C(F)(F)F)ccc3nc2C(=O)O)cc1	98	
Oc1cccc(-c2nc(-c3n[nH]c(=S)n3-c3ccccc3)cc3c2[nH]c2ccccc23)c1	9.44	2.37
CC1=C(C(=O)N[C@@H](CC(C)C)C(=O)O)N2C(=O)[C@@H](NC(=O)[C@@H](N)Cc3ccccc3)[C@H]2SC1	> 100	
CC1(C)CC[C@]2(C(N)=O)CC[C@]3(C)C(=CC[C@@H]4[C@@]5(C)C/C(=C/c6cccnc6)C(=O)C(C)(C)[C@@H]5CC[C@]43C)[C@@H]2C1	> 100	3.73
O=C(CCCCN1CCOCC1)Nc1ccc(Cn2nnc3c2C(=O)c2nnn(Cc4ccc(NC(=O)CCCCN5CCOCC5)cc4)c2C3=O)cc1	0.639	0.185
Nc1ccc(I)cn1	> 100	
O=C(/C=C/c1ccc(Br)cc1)c1ccc(NCc2nc3ccccc3[nH]2)cc1	> 90.4	
CSC(Cc1ccc2c(c1)Sc1ccccc1O2)=[N+]1CCOCC1	> 100	
Cn1ncc2c(Nc3ccc(Cl)cc3)c3ccccc3nc21	42.1	
CC(=O)OCC1(C)C(OC(C)=O)CCC2(C)C(CC(OC(C)=O)C3=CCOC3=O)C(O)(CO)CCC12 (stereo unspecified)	> 100	
Cc1cc([N+](=O)[O-])ccc1Sc1c2ccccc2nc2ccccc12	> 100	
CCOC(=O)/C=C\c1c(Cl)n(-c2ccccc2)c(=O)n(-c2ccccc2)c1=O	37.1	
